Measured values taken from PubChem BioAssay AID588342 (National Center for Advancing Translational Sciences (NCATS), 2011).
The campaign covered roughly 360,000 compounds. About 25,000 (6.9%) were called active. This list was built around the results that the source calls inconclusive (neither active nor inactive); the mix of calls is not that of the screen. Calls follow the shape of the dose curve; as a rule, active = well fitted inhibition curve with a large enough effect; inconclusive = small, poorly fitted or top-dose-only effect; inactive = flat fitted curve, though single readings scatter. Potencies of inconclusive entries are doubtful fits and often do not repeat.

These compounds were tested against Luciferin 4-monooxygenase (Photinus pyralis) (UniProt P08659) (assay: qHTS profiling assay for firefly luciferase inhibitor/activator using purifed enzyme and Km concentrations of substrates (counterscreen for miR-21 project)). Conditions: purified FLuc, luminescence inhibition; series mostly up to 57.5 µM; activity change, negative = inhibition: at the top concentration.
Chain of UniProt P08659 (P08659 whole entry, looked up): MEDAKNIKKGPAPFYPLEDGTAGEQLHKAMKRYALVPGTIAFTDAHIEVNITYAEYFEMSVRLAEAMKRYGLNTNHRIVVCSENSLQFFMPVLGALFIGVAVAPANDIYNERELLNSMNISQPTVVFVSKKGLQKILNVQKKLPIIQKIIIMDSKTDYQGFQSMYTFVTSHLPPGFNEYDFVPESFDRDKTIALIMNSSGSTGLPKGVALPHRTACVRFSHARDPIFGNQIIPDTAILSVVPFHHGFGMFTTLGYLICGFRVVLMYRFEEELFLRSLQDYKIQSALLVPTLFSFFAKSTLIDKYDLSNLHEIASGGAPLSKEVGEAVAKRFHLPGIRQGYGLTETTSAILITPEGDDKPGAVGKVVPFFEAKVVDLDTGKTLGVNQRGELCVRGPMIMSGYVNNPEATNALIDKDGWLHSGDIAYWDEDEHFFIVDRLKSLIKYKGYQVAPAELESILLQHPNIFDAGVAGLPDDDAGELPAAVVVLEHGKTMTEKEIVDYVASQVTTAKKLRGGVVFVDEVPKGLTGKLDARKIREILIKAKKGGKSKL
Method in brief: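 Purified P. pyralis luciferase, 10 nM final, with Km-level 10 uM D-luciferin and 10 uM ATP in 50 mM Tris acetate pH 7.5, 10 mM Mg acetate, 0.01% Tween-20, 0.05% BSA; 6-point qHTS titration about 60 µM downward; luminescence read.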
Also: nearly all actives have a fitted effect of over 55% in size.
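For activity change, negative = inhibition in this document: plate controls were vehicle for no effect and reference inhibitor for full effect.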
Potency is read from the fitted curve at half-maximal effect; tags tell the direction and shape of the fitted curve.

Row | Structure (SMILES) | Potency | activity change, negative = inhibition
1 | Cn1c(Cl)c(/C=N/OC(=O)C(C)(C)C)c2ccccc21 | inconclusive: 21.3 µM [inhibitor, single point] | 
2 | O=c1[nH]c2ccccc2nc1-c1cccs1 | inconclusive: 23.9 µM [inhibitor, partial curve, poor fit] | 
3 | CC(=O)c1sc(NCCOc2ccc(C)cc2)nc1C | inconclusive: 37.9 µM [inhibitor, single point] | 
4 | Cc1ccc(CNc2ncnc3c2nnn3C)cc1 |  | inactive: -5.5%
5 | CC(C)(O)[C@H]1Cc2cc3ccc(=O)oc3cc2O1 | active: 12 µM | 
6 | CCN1C(=O)/C(=C/c2nc3ccccc3c(=O)[nH]2)c2ccccc21 | inconclusive: 21.3 µM [inhibitor, partial curve, poor fit] | 
7 | Cc1ccn2cc(-c3ccc4c(c3)NC(=O)CO4)nc2c1 | active: 2.39 µM | 
8 | Cc1cccc(S(=O)(=O)CC(=O)Nc2nc(-c3ccccc3)cs2)c1 |  | inactive: -15.7%
9 | COc1ccc(Cl)cc1NC(=O)CN(C)CC(=O)Nc1ccc(Br)cc1 | inconclusive: 23.9 µM [inhibitor, partial curve, poor fit] | 
10 | COc1ccc(Br)cc1/C=N/Nc1ccc(Cl)c(C(=O)O)c1 | inconclusive: 26.9 µM [inhibitor, single point] | 
11 | COc1ccc(C(=O)C(O)C(c2ccc(C)cc2)N2CCOCC2)cc1OC (stereo unspecified) |  | inactive: 0.676%
12 | Cc1cc(C(=O)CSc2nncs2)c(C)n1Cc1ccco1 | active: 4.78 µM | 
13 | CCOc1cc(/C=N/Nc2nncc(-c3ccccc3)n2)ccc1O |  | inactive: -1.85%
14 | CCCCOc1ccc(N=Nc2ccc(N)nc2N)cn1 | active: 13.5 µM | 
15 | Cc1cc(C(=O)CN2C(=O)C(=O)N(Cc3ccccc3)C2=O)c(C)n1Cc1ccc(F)cc1 |  | inactive: -5.33%
16 | O=c1c2ccccc2n2c(-c3ccc(Cl)cc3)nnc2n1CCc1ccccc1 | inconclusive: 9.53 µM [inhibitor, partial curve, poor fit] | 
17 | O=C(/C=C/c1cccs1)c1cc(Cl)ccc1O | inconclusive: 37.9 µM [inhibitor, partial curve, poor fit] | 
18 | COC(=O)c1ccc(NS(=O)(=O)c2ccccc2)o1 | inconclusive: 26.9 µM [inhibitor, partial curve, poor fit] | 
19 | O=C(Nc1ccc(N2C(=O)C3C4C=CC(C4)C3C2=O)cc1)Nc1cccnc1 (stereo unspecified) | inconclusive: 26.9 µM [inhibitor, partial curve, poor fit] | 
20 | c1ccc(Nc2nc3ccccc3o2)cc1 | active: 3.01 µM | 
21 | O=c1[nH]c(=O)n(C2CCCCC2)c(O)c1C1=Nc2ccccc2SC(c2ccccc2)C1 (stereo unspecified) |  | inactive: -8.47%
22 | COc1ccccc1NC(=O)C1=C(C)Nc2nc(SCc3ccccc3Cl)nn2C1c1ccccn1 (stereo unspecified) |  | inactive: -0.368%
23 | COc1ccc(N=C2C(=O)Nc3c(C)cccc32)cc1 | inconclusive: 26.9 µM [inhibitor, partial curve, poor fit] | 
24 | COC(=O)c1c(-c2ccccc2)csc1N1C(=O)Nc2ccccc2N1O | active: 4.78 µM | 

Row | Structure (SMILES) | Potency | activity change, negative = inhibition
25 | COc1cccc(/C=N/Nc2nc(N3CCCC3)nc(N3CCCC3)n2)c1O | inconclusive: 23.9 µM [inhibitor, single point] | 
26 | Fc1cnc(N/N=C/c2ccc(-c3ccc(Br)cc3)o2)nc1N1CCOCC1 | inconclusive: 26.9 µM [inhibitor, single point] | 
27 | COc1ccc(-c2csc(NC(=O)CSc3nc(C)nc4sc(C(=O)O)c(C)c34)n2)cc1 | active: 26.9 µM | 
28 | C=CCN1C=CC(=CC=C(C#N)C#N)C=C1 | inconclusive: 23.9 µM [inhibitor, single point] | 
29 | Cc1nn(C(=O)c2ccc(Cl)cc2)c(C)c1S(=O)(=O)N1CCCCCC1 | inconclusive: 16.9 µM [inhibitor, partial curve, poor fit] | 
30 | Cc1csc(NC(=O)c2ccc(S(C)(=O)=O)cc2)n1 | inconclusive: 37.9 µM [inhibitor, partial curve, poor fit] | 
31 | COc1cc(/C=N/Nc2snc(SC)c2C#N)ccc1O | inconclusive: 1.69 µM [inhibitor, full curve] | 
32 | CCOc1cc(C(=O)Nc2ccc(NC(C)=O)cc2)ccc1OCC(=O)N1CCCCC1 | inconclusive: 26.9 µM [inhibitor, partial curve, poor fit] | 
33 | CN1C(=O)c2ccc(C(=O)Nc3nccs3)cc2C1=O | inconclusive: 26.9 µM [inhibitor, single point] | 
34 | COC(=O)c1cnc(N2CCCN(S(=O)(=O)c3ccccc3)CC2)nc1C(F)(F)F |  | inactive: 0.584%
35 | COc1ccc(/C=N/Nc2nn3cnnc3c3ccccc23)cc1 | inconclusive: 21.3 µM [inhibitor, single point] | 
36 | Cc1ccc(-c2cc(C(=O)Nc3cccnc3)c3ccccc3n2)s1 | active: 9.53 µM | 
37 | Cc1cccc2sc(N(CCCN(C)C)C(=O)c3ccc4ncsc4c3)nc12 | inconclusive: 37.9 µM [inhibitor, partial curve, poor fit] | 
38 | COc1ccc(NC(=O)CSc2nc(SC)ns2)cc1 | inconclusive: 26.9 µM [inhibitor, single point] | 
39 | c1cncc(-c2nc(-c3cccs3)cs2)c1 | active: 26.9 µM | 
40 | CCn1c(NC(=O)/C=C/c2ccc(F)cc2)nc2ccccc21 | inconclusive: 19 µM [inhibitor, partial curve] | 
41 | Cc1[nH][nH]c(=O)c1C(c1ccc(-c2ccc(C(=O)O)cc2)o1)c1c(C)[nH][nH]c1=O | inconclusive: 23.9 µM [inhibitor, partial curve, poor fit] | 
42 | CCN(CC)S(=O)(=O)c1ccc(N2CCOCC2)c(NC(=O)COc2ccc(Cl)cc2)c1 | inconclusive: 9.53 µM [inhibitor, partial curve] | 
43 | Cc1ccc(NC(=O)CN(C)C(=O)COC(=O)COc2ccc(C#N)cc2)cc1 | inconclusive: 4.26 µM [inhibitor, partial curve, poor fit] | 
44 | COc1cc(/C=C2/CCC/C(=C\c3cc(O)c(OC)c(Cl)c3)C2=O)cc(Cl)c1O | inconclusive: 30.1 µM [inhibitor, partial curve, poor fit] | 
45 | O=C(CN1CCCc2ccccc21)NCc1ccccc1Cl | inconclusive: 26.9 µM [inhibitor, single point] | 
46 | Cc1ccc2nc(-c3ccc(NS(=O)(=O)c4ccccc4)cc3)sc2c1 | active: 13.5 µM | 
47 | CCCCOC(=O)C1=C(C)NC(=O)NC1c1cccc([N+](=O)[O-])c1 (stereo unspecified) |  | inactive: 9.83%
48 | COc1ccc(CNC(=O)CCCN2C(=O)COc3ccc(C)cc32)cc1 |  | inactive: -11.1%

Row | Structure (SMILES) | Potency | activity change, negative = inhibition
49 | CC(=O)c1sc(Nc2ccccn2)nc1C | inconclusive: 37.9 µM [inhibitor, partial curve, poor fit] | 
50 | CC1=C(C(N)=O)C(c2ccccc2Br)n2ncnc2N1 (stereo unspecified) |  | inactive: -1.13%
51 | O=C(CSc1ccc(-c2ccco2)nn1)Nc1ccc(F)cc1F | inconclusive: 37.9 µM [inhibitor, single point] | 
52 | O=C(NCc1ccccc1Br)c1cnc2sc(N3CCCCCC3)nn2c1=O | inconclusive: 37.9 µM [inhibitor, partial curve, poor fit] | 
53 | CSc1ccc(CN(C)C(=O)COc2ccc(C(=O)c3ccccc3)cc2)cc1 | inconclusive: 37.9 µM [inhibitor, partial curve, poor fit] | 
54 | CCC1(C)Cc2c(sc3[nH]c(=S)[nH]c(=S)c23)CO1 (stereo unspecified) | inconclusive: 26.9 µM [inhibitor, single point] | 
55 | COc1ccc(/C=N/NC(=O)c2ccncc2)cc1CSc1nc2ccccc2s1 | inconclusive: 21.3 µM [inhibitor, partial curve, poor fit] | 
56 | Cc1ccc(C(=O)NCC(=O)OCC(=O)c2cc(C)n(Cc3ccco3)c2C)cc1 | active: 23.9 µM | 
57 | Cn1c2ccccc2c2nnc(SCC(N)=O)nc21 |  | inactive: -1.87%
58 | CN(C)c1ccc(C=NCC2COc3ccccc3O2)cc1 (stereo unspecified) | active: 12 µM | 
59 | COc1cccc(OC)c1C(=O)Nc1ccc2c(c1)Cc1ccccc1-2 | inconclusive: 21.3 µM [inhibitor, single point] | 
60 | COc1cc(/C=N/NC2=NS(=O)(=O)c3ccccc32)cc(OC)c1OC | inconclusive: 30.1 µM [inhibitor, single point] | 
61 | CC(OC(=O)CN1C(=O)NC(C)(C)C1=O)C(=O)c1ccccc1 (stereo unspecified) |  | inactive: -0.582%
62 | COc1ccccc1NC(=O)CCSc1nnc(-c2ccc(O)cc2)o1 | inconclusive: 19 µM [inhibitor, single point] | 
63 | CC(C)C(=O)Nc1cccc(C(=O)Nc2ccc3c(c2)OCO3)c1 | active: 8.49 µM | 
64 | NC(=O)[C@H]1CC2(CC(c3cccc(NC(=O)COc4ccc(Cl)cc4)c3)=NO2)CN1C(=O)C(c1ccccc1)c1ccccc1 (stereo partly specified) | inconclusive: 37.9 µM [inhibitor, partial curve, poor fit] | 
65 | C=CCN(C(=O)CC(NC(C)=O)c1ccccc1)c1nc(-c2ccc(S(C)(=O)=O)cc2)cs1 (stereo unspecified) | inconclusive: 23.9 µM [inhibitor, partial curve] | 
66 | Cc1ccc2c3c(cccc13)-c1ccccc1C2=O | active: 19 µM | 
67 | Cc1ccc(C(=O)NCC(=O)OCC(=O)NC2CCS(=O)(=O)C2)cc1C (stereo unspecified) | inconclusive: 26.9 µM [inhibitor, partial curve, poor fit] | 
68 | O=C(NCC1CCCO1)C(=O)NCC1CCCN1S(=O)(=O)c1ccccc1 (stereo unspecified) |  | inactive: -2%
69 | CC(=O)c1ccc(S(=O)(=O)N2CCC3(CC2)CC(=O)c2ccccc2O3)cc1 |  | inactive: 1.07%
70 | O=C(O)c1ccc(Nc2nc3ccc(Cl)cc3[nH]2)cc1 | inconclusive: 16.9 µM [inhibitor, partial curve] | 
71 | O=C(CNC(=O)c1ccco1)OCc1ccc(C(=O)Oc2ccccc2)cc1 | inconclusive: 33.8 µM [inhibitor, single point] | 
